Data as given in PubChem BioAssay AID624417 (National Center for Advancing Translational Sciences (NCATS), 2012).
The campaign covered roughly 410,000 compounds. About 6,400 (1.6%) were called active. The inconclusive results got no clear call from the source; some entries with a clear call stand among them for comparison. Calls come from the whole dose curve; as a rule, active = well fitted inhibition curve with a large enough effect; inconclusive = small, poorly fitted or top-dose-only effect; inactive = no such curve, though single readings can be large or run the other way. No potency is given beside an inconclusive call; the fits are too rough.

biological target: Glucagon-like peptide 1 receptor (Homo sapiens) (UniProt P43220); test: qHTS of GLP-1 Receptor Inverse Agonists (Inhibition Mode); conditions: HEK293 GLP-1R CRE-luciferase, luminescence, 24 h, GLP-1R form is constitutively active; series mostly up to 38.3 µM; note: nearly all actives have a fitted effect of over 55% in size
Method in brief: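 HEK293 cells stably co-expressing a cAMP-responsive luciferase reporter and constitutively active GLP-1R were seeded, incubated 12 h, then exposed to compounds for 24 h at 37 C. Luminescence was read 12 min after detection reagent; inverse agonists lower signal.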
Potency is the fitted concentration of half-maximal effect; tags give direction and shape of the fitted curve.

Chain of UniProt P43220 (P43220 whole entry, looked up): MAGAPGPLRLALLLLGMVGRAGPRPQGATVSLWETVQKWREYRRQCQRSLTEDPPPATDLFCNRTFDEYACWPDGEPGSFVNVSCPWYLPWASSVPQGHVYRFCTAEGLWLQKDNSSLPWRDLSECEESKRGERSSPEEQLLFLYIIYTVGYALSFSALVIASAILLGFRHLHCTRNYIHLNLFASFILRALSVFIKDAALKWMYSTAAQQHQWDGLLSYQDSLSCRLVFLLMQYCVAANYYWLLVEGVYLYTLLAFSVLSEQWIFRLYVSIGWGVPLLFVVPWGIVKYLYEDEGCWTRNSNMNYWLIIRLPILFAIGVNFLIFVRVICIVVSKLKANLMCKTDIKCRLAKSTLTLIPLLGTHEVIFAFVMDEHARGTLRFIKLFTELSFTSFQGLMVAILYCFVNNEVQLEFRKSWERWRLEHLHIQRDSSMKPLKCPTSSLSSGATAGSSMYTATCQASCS

| SMILES | Potency |
| --- | --- |
| O=C(COc1ccc(F)c(Cl)c1)c1ccc[nH]1 | inactive |
| Cc1ccc(NC(=O)Nc2ccc3oc(C)nc3c2)cc1 | inconclusive [inhibitor, single point] |
| CC(C)CCNC(=O)c1sc2ccc(S(=O)(=O)N3CCCCC3)cc2c1N | inconclusive [inhibitor, partial curve, poor fit] |
| CC(NC(=O)C1=Cc2ccccc2OC1)c1ccccc1 (stereo not given) | inconclusive [inhibitor, single point] |
| CC(C)(C)c1ccc(-n2ncc3c2CCCC3NC(=O)CN2CCCCC2=O)cc1 (stereo not given) | inconclusive [inhibitor, partial curve, poor fit] |
| CCC1(CC)NC(=O)N(CC(=O)N2CCc3ccccc32)C1=O | inconclusive [inhibitor, single point] |
| COc1ccc(CNC(=O)c2ccc3c(c2)CCN3S(=O)(=O)c2ccc(Cl)cc2)cc1 | inactive |
| CCC(C)NCCOc1cc(C)cc(C)c1C (stereo not given) | inconclusive [inhibitor, partial curve, poor fit] |
| COc1ccc(Cc2nc3ccc(C(=O)NCCc4ccccc4)cc3o2)cc1 | inconclusive [inhibitor, partial curve, poor fit] |
| CSc1ccc(/C=N/N(C)S(=O)(=O)c2ccc(C)cc2)cc1 | inconclusive [inhibitor, partial curve, poor fit] |
| O=C(c1ccccc1)N1N=C(c2ccccc2)CC1(O)C(F)(F)F (stereo not given) | inconclusive [inhibitor, partial curve, poor fit] |
| CCCCOc1ccc(CSC(CC(=O)O)C(=O)O)cc1 (stereo not given) | inactive |
| CCn1cc([N+](=O)[O-])c(C(=O)N2N=C(c3ccc4ccccc4c3)CC2c2cc(Br)ccc2O)n1 (stereo not given) | inconclusive [inhibitor, partial curve, poor fit] |
| CCOC(=O)c1c(C)[nH]c(C)c1S(=O)(=O)N1CCN(c2ccc(Cl)cc2)CC1 | inconclusive [inhibitor, single point] |
| O=C(c1ccccc1)N1N=C(c2ccccc2)CC1c1cccs1 (stereo not given) | inconclusive [inhibitor, partial curve, poor fit] |
| COc1ccc(OC)c(S(=O)(=O)ON2C(=O)c3ccccc3C2=O)c1 | inactive |
| Cc1ccc(C(=O)N(c2ccccc2)C2CC(C)N(C(=O)c3ccco3)c3ccccc32)cc1 (stereo not given) | active: 10 µM |
| Cc1ccc(-c2cn3cccnc3n2)cc1NC(=O)Cc1ccccc1 | inactive |
| O=C(CSc1nc(-c2cccs2)cc(C(F)(F)F)n1)NCc1ccco1 | inconclusive [inhibitor, partial curve] |
| Cc1ccc(-c2csc(N(CCCN(C)C)C(=O)c3ccco3)n2)cc1 | inconclusive [inhibitor, full curve, poor fit] |

| SMILES | Potency |
| --- | --- |
| O=C(CSCc1cnn(-c2ccccc2)c1-n1cccc1)NCc1ccccc1Br | inconclusive [inhibitor, single point] |
| COc1ccc(COC(=O)c2cccc(S(=O)(=O)N3CCCC3)c2)cc1F | inconclusive [inhibitor, single point] |
| Cc1cc(C)cc(NC(=O)c2ncn(-c3ccccc3)n2)c1 | inconclusive [inhibitor, partial curve, poor fit] |
| Cc1c(Cl)cccc1NC(=O)C(C)N(c1ccccc1)S(C)(=O)=O (stereo not given) | inactive |
| C=CC[C@@H](Cc1ccc(F)cc1)C(=O)OC[C@@H]1CCCN1C(=O)[C@@H](CC=C)CC(=O)N(CCO)Cc1ccccc1 | inconclusive [inhibitor, partial curve, poor fit] |
| CCCCc1nc2cc(C(=O)N3CCCC(OCCC)C3)ccc2o1 (stereo not given) | inconclusive [inhibitor, single point] |
| CCCCN(CC)CCCNC(=O)C1c2ccccc2C(=O)N(C)C1c1cn(C)c2ccccc12 (stereo not given) | inconclusive [inhibitor, partial curve, poor fit] |
| CCOC(=O)C1(CCCc2ccccc2)CCN(C(=O)CSC)CC1 | inconclusive [inhibitor, single point] |
| O=C1C2C3C=CC(C3)C2C(=O)N1c1ccc2ccccc2c1 (stereo not given) | inconclusive [inhibitor, single point] |
| COc1cccc(CN2CCN(C(=O)Nc3ccc([N+](=O)[O-])cc3)CC2)c1 | inconclusive [inhibitor, single point] |
| Cn1ccnc1SCC(=O)Nc1ccc(Oc2ccccc2)cc1 | inconclusive [inhibitor, single point] |
| O=C(O)c1ccccc1NC(=O)C(Cc1ccccc1)N1C(=O)c2ccccc2C1=O (stereo not given) | inconclusive [inhibitor, single point] |
| CCOc1ccccc1Nc1ncnc2c1c(-c1ccccc1)cn2-c1ccc(OC)cc1 | inconclusive [inhibitor, partial curve, poor fit] |
| Cc1ccc2[nH]cc(C(=O)CN3CCN(c4ccccn4)CC3)c2c1 | inconclusive [inhibitor, single point] |
| O=C1c2[nH]nc(-c3ccccc3O)c2C(c2ccc(Cl)cc2)N1CCc1ccccc1 (stereo not given) | inconclusive [inhibitor, single point] |
| c1ccc(C2Nc3ccccc3C3OCCCC23)cc1 (stereo not given) | inconclusive [inhibitor, single point] |
| Cc1cccc(C(=O)Nc2sc(C)c(-c3ccccc3)c2C#N)c1 | inconclusive [inhibitor, partial curve, poor fit] |
| COc1cc(NC(=O)CCc2c(C)nc3c4c(C)cc(C)nc4nn3c2C)cc(OC)c1 | inactive |
| CC(C)n1ncc2c(C(=O)N3CCN(Cc4ccc(Cl)s4)CC3)cc(C3CC3)nc21 | inconclusive [inhibitor, partial curve, poor fit] |
| C=CCn1c(=N)c(C(=O)NCCCOC)cc2c(=O)n3ccccc3nc21 | inactive |
